# Assay results reported in PubChem BioAssay AID2451 (National Center for Advancing Translational Sciences (NCATS), 2010).
# Among all 290,000 compounds or so, about 2,100 (0.72%) were called active. The inconclusive results got no clear call from the source; some entries with a clear call stand among them for comparison. The call rests on the fitted dose curve; in most records, active means well fitted inhibition curve with a large enough effect; inconclusive means small, poorly fitted or top-dose-only effect, or effect the other way; inactive means flat fitted curve, though single readings scatter. Where the call is inconclusive, the potency comes from a doubtful curve fit. More than one record can exist for a structure, and the calls need not agree.
# Biological target: Fructose-bisphosphate aldolase (Giardia intestinalis (strain ATCC 50803 / WB clone C6)) (UniProt A8B2U2)
# Test: qHTS Assay for Inhibitors of Fructose-1,6-bisphosphate Aldolase from Giardia Lamblia; further: nearly all actives have a fitted effect of over 55% in size
# Conditions: purified Giardia FBPA; series mostly up to 59.6 µM
# Outline: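 Giardia FBPA (40 nM reagent) was preincubated 10 min at RT with compound (up to 57.5 uM final), then substrate plus GAPDH/TPI/NAD/arsenate coupling system with diaphorase/resazurin was added; resorufin fluorescence (525/598 nm) was read after 20 min.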
# On the % scale 0 is the no-effect control and ±100 the full control effect; potency means the concentration at half of the fitted maximal effect; tags describe the fitted curve by direction and shape.
# UniProt A8B2U2, sequence (A8B2U2 whole entry, looked up): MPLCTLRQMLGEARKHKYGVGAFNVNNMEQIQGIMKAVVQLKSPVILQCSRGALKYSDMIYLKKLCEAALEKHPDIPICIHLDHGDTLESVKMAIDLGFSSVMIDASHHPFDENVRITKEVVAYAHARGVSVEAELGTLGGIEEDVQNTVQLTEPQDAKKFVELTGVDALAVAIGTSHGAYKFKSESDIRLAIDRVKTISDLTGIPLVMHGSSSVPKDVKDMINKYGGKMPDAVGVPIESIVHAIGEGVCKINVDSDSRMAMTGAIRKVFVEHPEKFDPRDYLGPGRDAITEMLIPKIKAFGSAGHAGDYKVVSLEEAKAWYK
row,SMILES,Potency
1,CC(C)C(c1nnnn1Cc1ccccc1)N(CCCO)Cc1cc2cc3c(cc2[nH]c1=O)OCO3 (stereo not given),inactive
2,O=C(Cc1ccccc1)N1CCN(CC2CC=CCC2)CC1 (stereo not given),"inconclusive: 22.3 µM [inhibitor, partial curve]"
3,O=C(CSc1nnc(-c2ccccc2Cl)o1)Nc1ccc2c(c1)OCCO2,inactive
4,COc1ccc(C2CC(=O)C(CS(=O)(=O)c3ccccc3)C(=O)C2)cc1 (stereo not given),"inconclusive: 19.9 µM [inhibitor, single point]"
5,COC(=O)c1ccc(CSc2nc3ccc(C)cc3[nH]2)o1,inactive
6,CC(=O)Cc1nsc(NC(=O)c2ccc(COc3ccccc3C)o2)n1,inactive
7,CN(C)c1ncnc2c1NC1=C(S2)C(=NCCCC(=O)O)CC(C)(C)C1,"inconclusive: 0.446 µM [inhibitor, full curve]"
8,N#C/C(=C\c1ccc(Sc2ccccc2)o1)c1nc2ccccc2[nH]1,inactive
9,CCCCNC(=O)CN1CCN(Cc2ccc3cc(OC)ccc3c2)CC1,"inconclusive: 20 µM [inhibitor, partial curve]"
10,O=C(NC1CCCCC1)c1cc2ccccc2cc1O,"inconclusive: 17.7 µM [inhibitor, partial curve]"
11,O=C(O)CC(NC(=O)C1c2ccccc2Oc2ccccc21)c1ccc(OC2CCCC2)cc1 (stereo not given),"inconclusive: 15.8 µM [activator, single point]"
12,COc1ccc(CNc2ccc(N3CCOCC3)cc2)cc1,inactive
13,O=C(Oc1ccccc1)c1cccc2cccc(C(=O)Oc3ccccc3)c12,inactive
14,CCNC(=O)/C(C#N)=C/c1c(N2CCN(c3ccc(OC)cc3)CC2)nc2c(C)cccn2c1=O,inactive
15,Cc1cc(/C=N/Nc2ncnc(N)c2[N+](=O)[O-])c(C)n1-c1ccccc1,"inconclusive: 17.7 µM [inhibitor, single point]"
16,Cc1ccc(Sc2c(C)[nH]n(C(C)(C)C)c2=O)cc1,inactive
17,CC(C)Cn1c(=O)c(-[n+]2ccccc2)c([O-])c2ccccc21,inactive
18,COc1ccc(C2CC(=O)N(CCCN(C)CCc3ccc(OC)c(OC)c3)C2)cc1 (stereo not given),"inconclusive: 14.1 µM [inhibitor, partial curve]"
19,Cc1cc(C(=O)N/N=C/c2cccnc2)c(C)o1,inactive
20,Cc1cc(/C=C(\C#N)C(=O)NCc2ccco2)c(C)[nH]1,inactive
21,CCC(C)N1C(=O)/C(=C/c2ccc3c(c2)CCN3CCCCl)C(=O)NC1=S (stereo not given),active: 11.2 µM
22,O=S(=O)(c1ccccc1)N1CCN(CC2CC3C=CC2C3)CC1 (stereo not given),"inconclusive: 15.8 µM [inhibitor, partial curve]"
23,CC[C@@H](CO)NC(=O)[C@H]1C=C2c3cccc4c3c(cn4C)C[C@H]2N(C)C1,"inconclusive: 9.98 µM [inhibitor, full curve]"
24,COc1ccc(/C=N/n2c(-c3ccccc3)n[nH]c2=S)cc1,"inconclusive: 28.2 µM [activator, single point]"
25,O=C(CNC(=O)c1ccccc1)NCCc1nc2ccccc2[nH]1,inactive

row,SMILES,Potency
1,S=c1[nH]nc(CSCCOc2ccccc2)o1,"inconclusive: 17.7 µM [inhibitor, partial curve]"
2,CC(C)(C)c1cc(C(=O)N/N=C/c2ccccn2)n[nH]1,active: 15.8 µM
3,COCc1cc(=O)n2[nH]c(-c3cccs3)cc2n1,"inconclusive: 15.8 µM [inhibitor, partial curve]"
4,O=C(O)CSc1cc(NS(=O)(=O)c2ccc(Cl)cc2)c2ccccc2c1O,active: 3.98 µM
5,COCCNC(=O)[C@H]1N2C(=O)c3c(ccc(OC)c3OC)C2SC1(C)C (stereo not given in full),"inconclusive: 28.2 µM [inhibitor, partial curve]"
6,CC(=O)Oc1cc2oc(=O)cc(C)c2cc1OC(C)=O,"inconclusive: 28.2 µM [inhibitor, single point]"
7,O=C(COc1ccccc1)Nc1cccc(-c2cn3cccnc3n2)c1,inactive
8,NC1(C(=O)O)CC(C(=O)O)C1 (stereo not given),active: 5.61 µM
9,COc1cc(C(=O)N2CCN(Cc3ccc4c(c3)OCO4)CC2)cc(OC)c1OC,"inconclusive: 15.8 µM [inhibitor, partial curve]"
10,O=[N+]([O-])c1cc(Cl)ccc1Sc1cccc2cccnc12,"inconclusive: 17.7 µM [inhibitor, partial curve]"
11,Cc1ccc(NC(=O)CN(CCc2ccccc2)S(C)(=O)=O)cc1,inactive
12,C=CCc1ccc(OCCCCNC2CCCC2)c(OC)c1,"inconclusive: 17.7 µM [inhibitor, partial curve]"
13,COc1ccc(Cl)cc1NC(=O)CNCC(c1ccccc1)N(C)C (stereo not given),"inconclusive: 19.9 µM [inhibitor, partial curve]"
14,COc1ccc(C2CC(=O)Oc3c(C(CCN4CCCC(C)C4)c4ccc(N(C)C)cc4)c(OC)cc(OC)c32)cc1 (stereo not given),inactive
15,Cc1cc(N2CCN(C(=O)c3ccco3)CC2)c2ccccc2n1,inactive
16,COC(=O)c1sc(NC(=O)C2CCCCC2C(=O)O)c(C(=O)OC)c1C (stereo not given),"inconclusive: 17.7 µM [activator, single point]"
17,CC(=O)Nc1cccc(N(C)C)c1,"inconclusive: 19.9 µM [inhibitor, partial curve]"
18,O=C(NC(=S)N(CCO)Cc1ccccc1)c1ccc(S(=O)(=O)N2CCCC2)cc1,active: 8.89 µM
19,COCCN1C(=O)C(=O)/C(=C(/O)c2ccc(OC(C)C)cc2)C1c1cccnc1 (stereo not given),"inconclusive: 15.8 µM [activator, single point]"
20,Cc1nc2ccccc2c(=O)n1/N=C/c1c(O)ccc2oc3c(c12)CCCC3,"inconclusive: 12.6 µM [inhibitor, partial curve]"
21,Cc1ccc2cccc(S(=O)(=O)n3nc(C)cc3C)c2n1,"inconclusive: 17.7 µM [inhibitor, partial curve]"
22,NS(=O)(=O)c1ccc(O)c(N2C(=O)c3cccc4c(C(=O)O)ccc(c34)C2=O)c1,"inconclusive: 17.7 µM [inhibitor, single point]"
23,Nc1c(C(=O)NC2CCCC2)c2nc3ccccc3nc2n1CC1CCCO1 (stereo not given),"inconclusive: 7.92 µM [inhibitor, partial curve]"
24,CCC[C@@H]1C[C@@]1(CCC)C(NC(=O)c1cccs1)c1ccc(Cl)cc1 (stereo not given in full),inactive
25,Cc1ccc(Nc2c(-c3ccccn3)nc3cccc(C)n23)cc1,inactive

row,SMILES,Potency
1,C(#Cc1ccccc1)CN1CCN(c2ccccn2)CC1,"inconclusive: 17.7 µM [inhibitor, single point]"
2,O=C(Nc1nnc(C2CC2)o1)c1ccc(S(=O)(=O)N2CCc3ccccc3C2)cc1,"inconclusive: 28.1 µM [inhibitor, single point]"
3,CC(CNC(=O)C(=O)NC(C)CCc1ccccc1)Cc1ccccc1 (stereo not given),inactive
4,COc1cc2c(cc1OC)CN(C(=O)CN1CCN(S(=O)(=O)c3ccccc3Br)CC1)CC2,active: 15.8 µM
5,O=S(=O)(Cc1nc2ccccc2s1)c1ccccc1,inactive
6,CN(C)C1C(=O)C(C(N)=O)=C(O)[C@@]2(O)C(=O)C3=C(O)c4c(O)ccc(Cl)c4C(O)[C@H]3C[C@@H]12 (stereo not given in full),inactive
7,CCCCn1c(O)c(/C=C/C=C/C=Nc2ccccc2)sc1=S,"inconclusive: 9.98 µM [inhibitor, partial curve]"
8,Cc1ccc(/C(O)=C/c2nc3cc(C)ccc3oc2=O)cc1,"inconclusive: 19.9 µM [inhibitor, partial curve]"
9,O=C(N/N=C/c1ccc2cccnc2c1)c1ccco1,inactive
10,CCn1nc(C)c(/C=N\NC(=O)c2ccc3c(c2)OCO3)c1C,inactive
11,COc1cccc(OCC(O)CNC2CCCC2)c1 (stereo not given),"inconclusive: 20 µM [inhibitor, single point]"
12,O=C(Nc1ccc(O)cc1)c1cccc(Oc2ccc([N+](=O)[O-])cc2)c1,inactive
13,CC(C(Sc1ccccc1N)c1ccccc1)[N+](=O)[O-] (stereo not given),active: 19.9 µM
14,CCC1CN2CCc3cc(OC)c(OC)cc3C2CC1CC1NCCc2cc(OC)c(OC)cc21 (stereo not given),"inconclusive: 15.8 µM [inhibitor, partial curve]"
15,O=C(C1=C(O)C(=O)N(c2nccs2)C1c1ccccc1)c1cc2ccccc2o1 (stereo not given),active: 15.8 µM
16,Cc1cc2nc3c(=O)[nH]c(=O)nc-3n(CC(O)C(O)C(O)CO)c2cc1C (stereo not given),"inconclusive: 9.98 µM [inhibitor, full curve] [middle of 4 runs]"
17,Cc1ccc(-c2csc(N(CCO)CCCn3c(C(F)(F)F)nc4cc(C(F)(F)F)ccc43)n2)cc1,"inconclusive: 15.8 µM [inhibitor, partial curve]"
18,Cc1cc(C)nc(N2N=C(C(F)(F)F)CC2=O)n1,active: 11.2 µM
19,COCCNC(=S)NNC(=O)c1ccco1,"inconclusive: 19.9 µM [inhibitor, partial curve]"
20,C/C(=N\Nc1nc(C(C)(C)C)cs1)c1ccc(O)cc1,"inconclusive: 31.6 µM [inhibitor, partial curve]"
21,Cc1cc(CC(=O)O)n(C)c1C(=O)c1ccc(Cl)cc1,"inconclusive: 15.8 µM [activator, single point]"
22,Cc1ccc(F)c(NC(=S)Nc2cccc3ccccc23)c1,"inconclusive: 28.2 µM [inhibitor, single point]"
23,CC(Sc1nc2c(c(=O)[nH]1)CCCC2)C(=O)Nc1ccc(Br)cn1 (stereo not given),"inconclusive: 20 µM [inhibitor, single point]"
24,CCc1ccc(OCC(=O)N/N=C/c2cc([N+](=O)[O-])ccc2N2CCOCC2)cc1,"inconclusive: 17.7 µM [inhibitor, single point]"
25,Cc1c(C(=O)Nc2ccc(F)cc2)sc2ncn(CC(=O)N3CCCCC3)c(=O)c12,inactive
